# The list shows a part of the results.
# B1: SP16665A-bot-344-23-344 (Bacteroides ovatus) (protein)
# chain: SDNEFPDFDYQTVYFANQYGLRTIELGESEFVDNTLDNQHKMVIKAAWGGGYTNRNNVVINFKVDESLCDNLYFKDTDQPLVPMPASYYTLASDRIAIPKGQIMAGVEVQLTDDFFADEKSISENYVIPLLMTNVQGADSILQGKPVVENPVLTNAGDWSILPQNFVLYAVKYVNPWHGEYLRRGIDHATVAGTSKDIIRHEQFVENDEVVNISTKSMKDNLLTLKTKDESGKDISYTVRLSFAEDGSCTVHSGSQNVVVSGSGKFVSKGEKNSLGGKDRNAIYLDYTVNLTDNNIQLATKDTLVLRTRNVYGGKSLEVVRK
# Tests used:
# Test in all cases: glycan array binding signal (z-score within array); higher = stronger binding
# Conditions in all cases: glycan notation: IUPAC condensed, linker removed
# [1] = target: Gal(b1-4)GlcNAc(b1-2)[Gal(b1-4)GlcNAc(b1-6)]Man(a1-6)[GlcNAc(b1-4)][Gal(b1-4)GlcNAc(b1-2)Man(a1-3)]Man(b1-4)GlcNAc(b1-4)GlcNAc
# Outline: (§1)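 Columns mapping to the same glycan were averaged after glycan names were converted to IUPAC-condensed notation. The data come from 3228 arrays in the Consortium for Functional Glycomics database, limited to those with an available protein sequence. Binding is reported as a within-array Z-score averaged across arrays of one protein sequence and across linkers.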
# [2] = target: Gal(b1-4)GlcNAc(b1-2)[Gal(b1-4)GlcNAc(b1-6)]Man(a1-6)[GlcNAc(b1-4)][Gal(b1-4)GlcNAc(b1-2)[Gal(b1-4)GlcNAc(b1-4)]Man(a1-3)]Man(b1-4)GlcNAc(b1-4)[Fuc(a1-6)]GlcNAc
# Outline: as §1
# [3] = target: Gal(b1-4)GlcNAc(b1-3)Gal(b1-3)GalNAc
# Outline: as §1
# [4] = target: Gal(b1-4)GlcNAc(b1-3)Gal(b1-3)GlcNAc
# Outline: as §1
# [5] = target: Gal(b1-4)GlcNAc(b1-3)Gal(b1-4)Glc
# Outline: as §1
# [6] = target: Gal(b1-4)GlcNAc(b1-3)Gal(b1-4)GlcNAc
# Outline: as §1
# [7] = target: Gal(b1-4)GlcNAc(b1-3)Gal(b1-4)GlcNAc(b1-2)Man(a1-3)[Gal(b1-4)GlcNAc(b1-3)Gal(b1-4)GlcNAc(b1-2)Man(a1-6)]Man(b1-4)GlcNAc(b1-4)GlcNAc
# Outline: as §1
# [8] = target: Gal(b1-4)GlcNAc(b1-3)Gal(b1-4)GlcNAc(b1-2)Man(a1-3)[Gal(b1-4)GlcNAc(b1-3)Gal(b1-4)GlcNAc(b1-2)Man(a1-6)]Man(b1-4)GlcNAc(b1-4)[Fuc(a1-6)]GlcNAc
# Outline: as §1
# [9] = target: Gal(b1-4)GlcNAc(b1-3)Gal(b1-4)GlcNAc(b1-2)[Gal(b1-4)GlcNAc(b1-3)Gal(b1-4)GlcNAc(b1-6)]Man(a1-6)[Gal(b1-4)GlcNAc(b1-3)Gal(b1-4)GlcNAc(b1-2)Man(a1-3)]Man(b1-4)GlcNAc(b1-4)GlcNAc
# Outline: as §1
# [10] = target: Gal(b1-4)GlcNAc(b1-3)Gal(b1-4)GlcNAc(b1-2)[Gal(b1-4)GlcNAc(b1-3)Gal(b1-4)GlcNAc(b1-6)]Man(a1-6)[Gal(b1-4)GlcNAc(b1-3)Gal(b1-4)GlcNAc(b1-2)Man(a1-3)]Man(b1-4)GlcNAc(b1-4)[Fuc(a1-6)]GlcNAc
# Outline: as §1
# [11] = target: Gal(b1-4)GlcNAc(b1-3)Gal(b1-4)GlcNAc(b1-3)Gal(b1-4)GlcNAc
# Outline: as §1
# [12] = target: Gal(b1-4)GlcNAc(b1-3)Gal(b1-4)GlcNAc(b1-3)Gal(b1-4)GlcNAc(b1-2)Man(a1-3)[Gal(b1-4)GlcNAc(b1-3)Gal(b1-4)GlcNAc(b1-3)Gal(b1-4)GlcNAc(b1-2)Man(a1-6)]Man(b1-4)GlcNAc(b1-4)GlcNAc
# Outline: as §1
# [13] = target: Gal(b1-4)GlcNAc(b1-3)Gal(b1-4)GlcNAc(b1-3)Gal(b1-4)GlcNAc(b1-2)Man(a1-3)[Gal(b1-4)GlcNAc(b1-3)Gal(b1-4)GlcNAc(b1-3)Gal(b1-4)GlcNAc(b1-2)Man(a1-6)]Man(b1-4)GlcNAc(b1-4)[Fuc(a1-6)]GlcNAc
# Outline: as §1
# [14] = target: Gal(b1-4)GlcNAc(b1-3)Gal(b1-4)GlcNAc(b1-3)Gal(b1-4)GlcNAc(b1-2)[Gal(b1-4)GlcNAc(b1-3)Gal(b1-4)GlcNAc(b1-3)Gal(b1-4)GlcNAc(b1-6)]Man(a1-6)[Gal(b1-4)GlcNAc(b1-3)Gal(b1-4)GlcNAc(b1-3)Gal(b1-4)GlcNAc(b1-2)Man(a1-3)]Man(b1-4)GlcNAc(b1-4)[Fuc(a1-6)]GlcNAc
# Outline: as §1
# [15] = target: Gal(b1-4)GlcNAc(b1-3)Gal(b1-4)GlcNAc(b1-3)Gal(b1-4)GlcNAc(b1-3)Gal(b1-4)GlcNAc(b1-2)Man(a1-3)[Gal(b1-4)GlcNAc(b1-3)Gal(b1-4)GlcNAc(b1-3)Gal(b1-4)GlcNAc(b1-3)Gal(b1-4)GlcNAc(b1-2)Man(a1-6)]Man(b1-4)GlcNAc(b1-4)GlcNAc
# Outline: as §1
# [16] = target: Gal(b1-4)GlcNAc(b1-3)Gal(b1-4)GlcNAc(b1-3)Gal(b1-4)GlcNAc(b1-3)Gal(b1-4)GlcNAc(b1-2)Man(a1-3)[Gal(b1-4)GlcNAc(b1-3)Gal(b1-4)GlcNAc(b1-3)Gal(b1-4)GlcNAc(b1-3)Gal(b1-4)GlcNAc(b1-2)Man(a1-6)]Man(b1-4)GlcNAc(b1-4)[Fuc(a1-6)]GlcNAc
# Outline: as §1
# [17] = target: Gal(b1-4)GlcNAc(b1-3)Gal(b1-4)GlcNAc(b1-3)Gal(b1-4)GlcNAc(b1-3)Gal(b1-4)GlcNAc(b1-2)[Gal(b1-4)GlcNAc(b1-3)Gal(b1-4)GlcNAc(b1-3)Gal(b1-4)GlcNAc(b1-3)Gal(b1-4)GlcNAc(b1-6)]Man(a1-6)[Gal(b1-4)GlcNAc(b1-3)Gal(b1-4)GlcNAc(b1-3)Gal(b1-4)GlcNAc(b1-3)Gal(b1-4)GlcNAc(b1-2)Man(a1-3)]Man(b1-4)GlcNAc(b1-4)[Fuc(a1-6)]GlcNAc
# Outline: as §1
# [18] = target: Gal(b1-4)GlcNAc(b1-3)Gal(b1-4)GlcNAc(b1-3)Gal(b1-4)GlcNAc(b1-3)Gal(b1-4)GlcNAc(b1-3)Gal(b1-4)GlcNAc(b1-2)Man(a1-3)[Gal(b1-4)GlcNAc(b1-3)Gal(b1-4)GlcNAc(b1-3)Gal(b1-4)GlcNAc(b1-3)Gal(b1-4)GlcNAc(b1-3)Gal(b1-4)GlcNAc(b1-2)Man(a1-6)]Man(b1-4)GlcNAc(b1-4)GlcNAc
# Outline: as §1
# [19] = target: Gal(b1-4)GlcNAc(b1-3)Gal(b1-4)GlcNAc(b1-3)Gal(b1-4)GlcNAc(b1-3)Gal(b1-4)GlcNAc(b1-3)Gal(b1-4)GlcNAc(b1-2)Man(a1-3)[Gal(b1-4)GlcNAc(b1-3)Gal(b1-4)GlcNAc(b1-3)Gal(b1-4)GlcNAc(b1-3)Gal(b1-4)GlcNAc(b1-3)Gal(b1-4)GlcNAc(b1-2)Man(a1-6)]Man(b1-4)GlcNAc(b1-4)[Fuc(a1-6)]GlcNAc
# Outline: as §1
# [20] = target: Gal(b1-4)GlcNAc(b1-3)Gal(b1-4)GlcNAc(b1-3)Gal(b1-4)GlcNAc(b1-3)Gal(b1-4)GlcNAc(b1-3)Gal(b1-4)GlcNAc(b1-2)[Gal(b1-4)GlcNAc(b1-3)Gal(b1-4)GlcNAc(b1-3)Gal(b1-4)GlcNAc(b1-3)Gal(b1-4)GlcNAc(b1-3)Gal(b1-4)GlcNAc(b1-6)]Man(a1-6)[Gal(b1-4)GlcNAc(b1-3)Gal(b1-4)GlcNAc(b1-3)Gal(b1-4)GlcNAc(b1-3)Gal(b1-4)GlcNAc(b1-3)Gal(b1-4)GlcNAc(b1-2)Man(a1-3)]Man(b1-4)GlcNAc(b1-4)[Fuc(a1-6)]GlcNAc
# Outline: as §1
# [21] = target: Gal(b1-4)GlcNAc(b1-3)Gal(b1-4)GlcNAc(b1-3)Gal(b1-4)GlcNAc(b1-3)Gal(b1-4)GlcNAc(b1-3)Gal(b1-4)GlcNAc(b1-3)Gal(b1-4)GlcNAc(b1-2)Man(a1-3)[Gal(b1-4)GlcNAc(b1-3)Gal(b1-4)GlcNAc(b1-3)Gal(b1-4)GlcNAc(b1-3)Gal(b1-4)GlcNAc(b1-3)Gal(b1-4)GlcNAc(b1-3)Gal(b1-4)GlcNAc(b1-2)Man(a1-6)]Man(b1-4)GlcNAc(b1-4)GlcNAc
# Outline: as §1
# [22] = target: Gal(b1-4)GlcNAc(b1-3)Gal(b1-4)GlcNAc(b1-3)GalNAc
# Outline: as §1
# [23] = target: Gal(b1-4)GlcNAc(b1-3)Gal(b1-4)GlcNAc(b1-3)[Gal(b1-4)GlcNAc(b1-3)Gal(b1-4)GlcNAc(b1-6)]GalNAc
# Outline: as §1
# [24] = target: Gal(b1-4)GlcNAc(b1-3)Gal(b1-4)GlcNAc(b1-6)[Gal(b1-3)]GalNAc
# Outline: as §1
# [25] = target: Gal(b1-4)GlcNAc(b1-3)Gal(b1-4)[Fuc(a1-3)]GlcNAc(b1-3)Gal(b1-4)[Fuc(a1-3)]GlcNAc
# Outline: as §1
# [26] = target: Gal(b1-4)GlcNAc(b1-3)GalNAc
# Outline: as §1
# [27] = target: Gal(b1-4)GlcNAc(b1-3)[Fuc(a1-3)GlcNAc(b1-6)]Gal(b1-4)Glc
# Outline: as §1
# [28] = target: Gal(b1-4)GlcNAc(b1-3)[Gal(b1-4)GlcNAc(b1-6)]Gal(b1-4)GlcNAc
# Outline: as §1
# [29] = target: Gal(b1-4)GlcNAc(b1-3)[GlcNAc(b1-6)]Gal(b1-4)GlcNAc
# Outline: as §1
# [30] = target: Gal(b1-4)GlcNAc(b1-6)Gal(b1-4)GlcNAc
# Outline: as §1
# [31] = target: Gal(b1-4)GlcNAc(b1-6)GalNAc
# Outline: as §1
# [32] = target: Gal(b1-4)GlcNAc(b1-6)[Gal(b1-3)]GalNAc
# Outline: as §1
# [33] = target: Gal(b1-4)GlcNAc(b1-6)[Gal(b1-4)GlcNAc(b1-3)]GalNAc
# Outline: as §1
# Gal(b1-4)GlcNAc6P = target: Gal(b1-4)GlcNAc6P
# Outline: as §1
# Gal(b1-6)Gal = target: Gal(b1-6)Gal
# Outline: as §1
# Gal3S(b1-3)GalNAc = target: Gal3S(b1-3)GalNAc
# Outline: as §1
# Gal3S(b1-3)GlcNAc = target: Gal3S(b1-3)GlcNAc
# Outline: as §1
# [34] = target: Gal3S(b1-3)[Fuc(a1-4)]GlcNAc
# Outline: as §1
binder,measurement,setting,value
B1,glycan array binding signal (z-score),[1],-0.304
same,glycan array binding signal (z-score),[2],-0.757
same,glycan array binding signal (z-score),[3],-0.408
same,glycan array binding signal (z-score),[4],-0.173
same,glycan array binding signal (z-score),[5],0.226
same,glycan array binding signal (z-score),[6],-0.125
same,glycan array binding signal (z-score),[7],0.404
same,glycan array binding signal (z-score),[8],-0.278
same,glycan array binding signal (z-score),[9],0.676
same,glycan array binding signal (z-score),[10],0.103
same,glycan array binding signal (z-score),[11],0.071
same,glycan array binding signal (z-score),[12],0.702
same,glycan array binding signal (z-score),[13],2.77
same,glycan array binding signal (z-score),[14],-0.333
same,glycan array binding signal (z-score),[15],0.2
same,glycan array binding signal (z-score),[16],-0.114
same,glycan array binding signal (z-score),[17],0.091
same,glycan array binding signal (z-score),[18],-0.342
same,glycan array binding signal (z-score),[19],0.44
same,glycan array binding signal (z-score),[20],0.968
same,glycan array binding signal (z-score),[21],0.152
same,glycan array binding signal (z-score),[22],-0.439
same,glycan array binding signal (z-score),[23],0.116
same,glycan array binding signal (z-score),[24],-0.29
same,glycan array binding signal (z-score),[25],-0.128
same,glycan array binding signal (z-score),[26],0.135
same,glycan array binding signal (z-score),[27],-0.732
same,glycan array binding signal (z-score),[28],0.369
same,glycan array binding signal (z-score),[29],-0.377
same,glycan array binding signal (z-score),[30],-0.427
same,glycan array binding signal (z-score),[31],0.329
same,glycan array binding signal (z-score),[32],0.088
same,glycan array binding signal (z-score),[33],-0.234
same,glycan array binding signal (z-score),Gal(b1-4)GlcNAc6P,0.203
same,glycan array binding signal (z-score),Gal(b1-6)Gal,0.157
same,glycan array binding signal (z-score),Gal3S(b1-3)GalNAc,0.97
same,glycan array binding signal (z-score),Gal3S(b1-3)GlcNAc,-0.098
same,glycan array binding signal (z-score),[34],0.015

# Reference: the supplement of paper PMC8728848
